Sequences and labels used below:
B1: TPR 5TU (parent)
chain: GGAUCUUCUCGAUCUAACAAAAAAGACAAAUCUGCCACAAAGCUUGAGAGCAUCUUCGGAUGCAGAGGCGGCAGCCUUCGGUGGCGCGAUAGCGCCAACGUUCUCAACUAUGACACGCAAAACGCGUGCUCCGUUGAAUGGAGUUUAUCAUG

Variants at the background level are over-represented here.

This data set covers variants of B1. As to the kind of experiment: polymerase ribozyme fitness, log enrichment relative to wild type (log ratio); higher = more active; in vitro selection for triplet polymerase activity. A digest of the protocol:
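Streptavidin-bead capture of gel-excised extended constructs, followed by RT-PCR, closed a single triplicate in vitro selection round. That round began by annealing PCR-built, transcribed mutant libraries of each subunit of a heterodimeric triplet polymerase ribozyme with a biotinylated primer, the partner subunit and triplets, then incubating them frozen at −7 °C. After Illumina sequencing of inputs and outputs, genotypes needed ≥10 input reads and ≥1 read per output. Fitness is the base-2 logarithm of genotype enrichment over wild-type enrichment, using inverse-variance-weighted replicate averages.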
Consider GGAUCUUCUCGAUCUAACAAAAUAGACAAAUCUGCCACAAAGCUUGAGAGUAUCUUCGGAUGCAGAGGCGGCAGCCUUCGGUGGCGCGAUAGUGCCAACUUUCUCAACUAUGACACGCAAAAGGCGUGCUCCGUUGAAUGGAGUUUAUCAUG, for which the “polymerase ribozyme fitness (log ratio)” value was at most -4.2.

For GGAUCUUCUCGAUCUAACAAAAUAGACAAAUCUGACACAAAGCUUGAGAGCAUCGUCGGAUGCAGAGGCGGCAGGCUUCGGUGGCGUGAUAGCGCCCACGUUCUCUACUAUGACACGCAAAACGCGUGCUCCGUUGAAUGGAGUGUAUCAUG, the “polymerase ribozyme fitness (log ratio)” value was at most -4.2.

As for GGAUCUUCUCGAUCUAACAAAAUAGACAAAUCUGCCACAAAUCUUGAGAGCAUCUUCGGAUGCAGAGACGGCAGCCUUUGGUGGCGCGAUAGCGCGAACGUUCUCAACUAUGACACGCAAAACGCGUGCUCCGUUGAAUCGAGUUUAUCAUG, the “polymerase ribozyme fitness (log ratio)” value is at most -4.2.

Take GGAUCUUCUCGAUCUAACAAAAUAUAGAAAUCUGCCACAAAGCUUGAGAGCAUCUACGGAUGCAGAGGCGGCAGUCUUCGGUGGCGCGAUAGCGCAAACGUUCUCAACUAUGACACGCAAAACGCGUGCUCCGUUGAAUGGAGUUUAUCAUG: the “polymerase ribozyme fitness (log ratio)” value was at most -4.2.

In the case of GGAUCUUCUCGAUCUAACAAAAUAGACAAAUCUGCCACAAAGCUUGAGAGCAUCUUCGGAUGCAGAGGCGGCAGACUUCGGUGGGGCGAUAGCGCCAACGUUCUCAACUAUGACACGCAAAACGCGUGCUGCGUUGAAUGGAGUUUAUCAUG, the “polymerase ribozyme fitness (log ratio)” value is at most -4.2.

For GGAUCUUCUCGAUCUAACAAAAUAGAGAAAUCUGCCACAAAGCUUGAGAGCAUCUUCGGAUGCAGAGGCGGCAGCCUUCGGUGGCGCGAUAGCGCCAACGUUCUCAACUAUGACAGGCAAAACGCGUGCUCCGUUGAAUGGAGUUUAUCAUG, the “polymerase ribozyme fitness (log ratio)” value was at most -4.2.

With GGAUCUUCUCGAUCUAACAAAAUAGACAAAUCUGCCACAAAGCUUGAGAGCAUCUUCGGAUGCAGAGGCGGCAGCCUUCGGUGGUGCGAUGGCGCCAACGUUCUCAACUAUGACACGCAAAACGCCUGCUCCGUUGAAUUGAGUUUAUCAUG, the “polymerase ribozyme fitness (log ratio)” value is at most -4.2.

On to GGAUCUUCUCGAUCUAACAAAAUAGACAAAUCUGCCACAAAGCUUGAGUGCAUCUUCGGAUGCAGAGGCGGCGGCCUUCGGUGGCGCGAUAGCGCAAACGUUCUCAACUAUGACACGCAAAACGCGGGCUCCGUUGAAUGGAGUUUAUCAUG, for which the “polymerase ribozyme fitness (log ratio)” value was at most -4.2.

Turning to GGAUCUUCUCGAUCUAACAAAAUAGAAAAAUCUGCCACAAUGCUUGAGAGCAUAUUUGGAUGCAGAGGCGGCAGUCUUCGGUGGCGGGAUAGCGCCAACGUUCUGAACUAUGACACGCAAUACGCGUGCUCCGUUGAAUGGAGUUGAUCAUG, the “polymerase ribozyme fitness (log ratio)” value is at most -4.2.

As for GGAUCUUCUCGAUCUAACAAAAUAGACAAAUCUGCCACAAAGCUUGAGAGCAUCUUCGGAUGCAGAGGCGGCAGCCUUCGGUGGGGCGAUAGCGCCAACGUUCUCAACUAUGACACGCAAAACGCGUGCUCCGUUGAAUGAAGUUUAUCAUG, the “polymerase ribozyme fitness (log ratio)” value is at most -4.2.

For GGAUCUUCUCGAUCUAACAAAAUAGACAAAUCUGCCACAAAGCUUGAGAGCAUCUUCGGAUGCAGAGGCGGCAGACUUCGGUGGCGCGAUAGCGCCAACGUUCUCAAGUAUGACACGCAAAACGCGUGCUCCGUUGAAUGGAGUCUAUCAUG, the “polymerase ribozyme fitness (log ratio)” value is at most -4.2.

In the case of GGAUCUUCUCGAUCUAACAAAAUAGACAAAUCUGCCACAAAGCUUGAGAACAUCUUCGGAUGCAGAGGCGGCAGCCUUCGGUGGCGGGAUAGCGCCAACGUUCUCAACUAUGACACACAAAACGCGUGCUCCGGUGAAUGGAGUUUAUCAUG, the “polymerase ribozyme fitness (log ratio)” value was at most -4.2.

GGAUCUUCUCGAUCUAACAAAAUAGACAAAUCUGCCACAAAGCUUGAGAGCAUCUUCGGAUGCAGGGGCGGCAGCCUUCGGUGGCGCGAUCGCGCCAACGUUCUCCACUAUGACACGCAAAACGCGUGCUCCGUUGAAAGGAGUUUAUCAUG: the “polymerase ribozyme fitness (log ratio)” value is at most -4.2.

GGAUCUUCUCGAUCUAACAAAAUAGACAAAUCUGCCACAAAGCUUGAGAGCAUCUUCGGAUGCAGAGGCGGCAGCCUUCGGUGGCGAGAUAGCGCCAACGUUCUCAACUAUGACACGCAAAACGCGUGCUCCAUUGAAUGGAGUUUAUCAUG: the “polymerase ribozyme fitness (log ratio)” value is at most -4.2.

Take GGAUCUUCUCGAUCUAACAAAAUAGACAAAUCUGCCACAAAGCUUGAGAGCAUCUUCGGAUGCAGAGGCGGCAGCCUUUGCUAGCGCGAUAGCGCCAACGUUCUCAACUAUGUCACGCAAAACGCGUGCUCCGUUGAAUGGAGUUUAUCAUG: the “polymerase ribozyme fitness (log ratio)” value was at most -4.2.

For GGAUCUUCUCGAUCUAACAAAAUAGACAAAUCUGCCACAAAGCUUGAGAGCAUCUUCGGAUGCAGAGGCGGUAGCCUUCGGUGGCGGGAUAGAGCCAACGUUCUCAACUAUGACACGCAAAACGCGUGCUCCGUUGAAUGGAGUUUAUCAUG, the “polymerase ribozyme fitness (log ratio)” value was at most -4.2.

Take GGAUCUUCUCGAUCUAACAAAAUAGACAAAUCUGCCACAAAGCUUGAGAGCAUCUUCGGAUGCAGAGGCGGCAGCCUUCGGUGGUGCGAUAGCGCCAACGUUCUCAACUAUGACACGCAAAACGCGUGCUCCGUUGAAUGGAGUUUAUCAUG: the “polymerase ribozyme fitness (log ratio)” value is -3.33.

On to GGAUCUUCUCGAUCUAACAAAAUAGACAAAUCUGCUACAAAGCUUGAGAGCAUCUUCGGAUGCAGAGGCGGCAGCCUUCGGUGGAGCGAUAGCGCGUACGUUCUCAACUAUGACACGCAAAACGCGUGCUCCGUUGAAUGGAGUUUAUCAUG, for which the “polymerase ribozyme fitness (log ratio)” value is at most -4.2.

For the variant GGAUCUUCUCGAUCUAACAAAAUAGACAAAUCUGCCACAAAGCUUGAGAGCAUCUUCGGGUGCAGAGGCGGCAGUCUUCGGUGGCCCGAUAGCGCCAACGUUCUCAUCUAUGACACGCAAAACGCGUGCUCCGUUGAAUGGAGCUUGUCAUG, the “polymerase ribozyme fitness (log ratio)” value was at most -4.2.

For the origin of these results see the RNAGym collection of RNA variant scans (doi:10.1073/pnas.2313332121).
